# Test results taken from PubChem BioAssay AID540317 (National Center for Advancing Translational Sciences (NCATS), 2011).
# About 2,200 (0.56%) of roughly 390,000 compounds were called active. Where a call stands in place of a potency, no number is given. This list was built around the results that the source calls inconclusive (neither active nor inactive); the mix of calls is not that of the screen. The call rests on the fitted dose curve; in most records, active means well fitted inhibition curve with a large enough effect; inconclusive means small, poorly fitted or top-dose-only effect; inactive means no such curve, though single readings can be large or run the other way. A potency beside an inconclusive call is a rough fit, not a confirmed value.
# Target: Chromobox protein homolog 1 (Homo sapiens) (UniProt P83916)
# Experiment: HTS for Inhibitors of HP1-beta Chromodomain Interactions with Methylated Histone Tails; further: nearly all actives have a fitted effect of over 70% in size
# Conditions: AlphaScreen HP1-beta / biotin-H3K9me3 peptide binding; series mostly up to 114 µM
# Method in brief: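 AlphaScreen: HP1-beta (50 nM) preformed 30 min with biotin-H3(1-18)K9me3 peptide (50 nM) in PBS pH 7.4, 0.01% Tween-20. Compound added for 30 min at RT, then streptavidin donor/nickel chelate acceptor beads (10 ug/mL) for 30 min.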
# Potency means the concentration at half of the fitted maximal effect; tags describe the fitted curve by direction and shape.
# Chain of UniProt P83916 (P83916 whole entry, looked up): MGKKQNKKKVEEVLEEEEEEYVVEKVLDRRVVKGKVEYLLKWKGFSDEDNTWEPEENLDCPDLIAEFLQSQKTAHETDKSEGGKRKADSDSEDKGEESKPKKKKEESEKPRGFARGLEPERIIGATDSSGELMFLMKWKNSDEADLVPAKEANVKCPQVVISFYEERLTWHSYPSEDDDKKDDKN
row,Structure (SMILES),Potency
1,COc1cc(NS(=O)(=O)c2ccc(NC(=S)NC(=O)c3sc4ccccc4c3Cl)cc2)ncn1,"inconclusive: 7.08 µM [inhibitor, partial curve, poor fit]"
2,O=C(COC(=O)/C=C/c1ccccc1)NCCc1ccc(F)cc1,inactive
3,COc1ccc(Cc2nc3ccc(C(=O)N4CCN(C)C(C)C4)cc3o2)cc1OC (centres undefined),inactive
4,Cc1ncc(CN2CCCC(C(=O)Nc3ccc(-c4cccc(F)c4)cc3)C2)n1C (centres undefined),"inconclusive: 70.8 µM [inhibitor, single point]"
5,CCCN1CCN(CC(=O)Nc2cc(OCC)ccc2OCC)CC1,"inconclusive: 15.8 µM [inhibitor, partial curve, poor fit]"
6,CC(OC(=O)c1ccc(C#N)cc1)C(=O)Nc1ccc(Cl)cn1 (centres undefined),inactive
7,CCC(=O)OC1(C)C(=O)C2=COC(c3ccc(OC)cc3)=CC2=C(Br)C1=O (centres undefined),inactive
8,COc1ccc(Nc2ccnc(Nc3ccc(OC)cc3)n2)cc1,"inconclusive: 35.5 µM [inhibitor, partial curve]"
9,S=c1[nH]c2ccccc2n2c(=S)[nH]nc12,inactive
10,CC1CCN(Cc2nnnn2CCCC(=O)N(C)C(C)c2ccccn2)CC1 (centres undefined),inactive
11,COc1ccc(C(=O)c2ccc([N+](=O)[O-])cc2Cl)cc1,"inconclusive: 44.7 µM [inhibitor, partial curve]"
12,Cc1cc(S(=O)(=O)Nc2nc(CN3CCOCC3)nc3sc4c(c23)CCCC4)ccc1F,inactive
13,CSCCC(NC(=O)c1cc(C)oc1C)C(=O)O (centres undefined),inactive
14,CC1CC(CC(=O)NNc2nc(-c3ccccc3)cs2)C(=O)O1 (centres undefined),inactive
15,CC1CC(C)CN(CCOCCSc2ccc(Cl)cc2)C1 (centres undefined),"inconclusive: 35.5 µM [inhibitor, partial curve]"
16,CC(C)(C)OC(=O)N/N=C/c1cccn1-c1ccc([N+](=O)[O-])cc1,"inconclusive: 50.1 µM [inhibitor, partial curve]"
17,Cc1ncc(CN2CCCC(C(=O)Nc3ccc(-c4ccco4)cc3)C2)n1C (centres undefined),"inconclusive: 56.2 µM [inhibitor, single point]"
18,CSc1ccc(CN(C)C(=O)c2cc(=O)[nH]c3ccccc23)cc1,inactive
19,CN(C)CCOc1ccc(C(C)(C)c2ccccc2)cc1,"inconclusive: 17.8 µM [inhibitor, full curve]"
20,Cc1cccc(N2CCN(S(=O)(=O)c3c(C(=O)N4CCC(C)CC4)c(C)n(C)c3C)CC2)c1C,inactive
21,COc1ccc(/C=C2\SC(=S)N(CCCC(=O)NNC(=O)c3ccccc3O)C2=O)cc1,"inconclusive: 39.8 µM [inhibitor, single point]"
22,CCOc1ccc(C(c2c(O)cc(C)n(Cc3ccco3)c2=O)N2CCN(c3ccccc3)CC2)cc1 (centres undefined),inactive
23,COc1ccc(NC2c3ccccc3C(=O)N2Cc2ccccc2Cl)cc1OC (centres undefined),"inconclusive: 28.2 µM [inhibitor, full curve]"
24,Cc1sc2nc(CSc3n[nH]c(N)n3)[nH]c(=O)c2c1C,inactive
25,COc1cc(C(=S)N2CCOCC2)ccc1OS(=O)(=O)c1ccccc1[N+](=O)[O-],"inconclusive: 14.1 µM [inhibitor, partial curve, poor fit]"

row,Structure (SMILES),Potency
1,Nn1c(-c2ccco2)n[nH]c1=S,"inconclusive: 79.4 µM [inhibitor, single point]"
2,C=C(C)C1CC=C(C)/C(=N\NC(=O)CNc2cccc3ccccc23)C1 (centres undefined),inactive
3,CCNC(=S)N1CCN(c2ccccn2)CC1,inactive
4,Cc1ccc(/C=C2\C(=N)N3N=C(CC(=O)N4CCCCC4)SC3=NC2=O)cc1,inactive
5,COCCOC(=O)C(C#N)c1nc2ccccc2nc1N1CCN(Cc2ccccc2)CC1 (centres undefined),"inconclusive: 39.8 µM [inhibitor, partial curve, poor fit]"
6,Cc1ccccc1C(=O)Nc1nnc(SCc2cc(=O)c3c(C)ccc(C)c3[nH]2)s1,inactive
7,CC(=O)NC(Cc1ccc(C)cc1)C(=O)NC1CCN(C(=O)c2ccc([N+](=O)[O-])cc2)CC1 (centres undefined),inactive
8,O=C1C(c2ccc(F)cc2)N(CCc2ccccc2)C(=O)CN1C1CCCCC1 (centres undefined),inactive
9,COc1ccc(C)cc1S(=O)(=O)N1CC(C)OC(C)C1 (centres undefined),inactive
10,CC(C)n1c(=S)[nH]c2c1c(=O)[nH]c(=O)n2C,active: 10 µM
11,O=C(c1ccccc1)N1CCN(c2ccc([N+](=O)[O-])c(NCc3ccco3)c2)CC1,"inconclusive: 15.8 µM [inhibitor, partial curve, poor fit]"
12,COc1cc(CN2CCN(Cc3ccco3)CC2)cc(OC)c1,"inconclusive: 25.1 µM [inhibitor, single point]"
13,O=C(CCS(=O)(=O)c1cc2c3c(c1)CCN3C(=O)CC2)NCc1ccc(F)cc1,inactive
14,Cc1ccc(C(=O)c2c(NC(=O)c3ccncc3)sc3c2CCCC3)cc1,"inconclusive: 15.8 µM [inhibitor, single point]"
15,COc1ccc(C(=O)C(=NNc2ccccc2)c2ccc(OC)cc2)cc1,"inconclusive: 15.8 µM [inhibitor, partial curve, poor fit]"
16,O=S(=O)(NCCSCc1c(Cl)cccc1Cl)c1ccc2c(c1)OCCO2,inactive
17,CN1C=CC=C/C1=C1/SC(=S)N(Cc2ccccc2)C1=O,"inconclusive: 20 µM [inhibitor, full curve, poor fit]"
18,Nc1nnc(SCC(=O)Nc2cccc3ccccc23)s1,"inconclusive: 89.1 µM [inhibitor, single point]"
19,CCCCNC(=S)N1CCN(Cc2ccc3c(c2)OCO3)CC1,"inconclusive: 15.8 µM [inhibitor, full curve]"
20,CCOc1ccc(C2/C(=C(\O)c3ccc4c(c3)OCCO4)C(=O)C(=O)N2CCN2CCOCC2)cc1OC (centres undefined),inactive
21,COc1ccc(-c2noc(COc3ccc4c(c3)OCO4)n2)cc1,inactive
22,CN1C(=S)SC(C)(NO)C1(C)C (centres undefined),"inconclusive: 79.4 µM [inhibitor, partial curve, poor fit]"
23,CCn1c(CC(=O)Nc2ccc(F)cc2)nnc1SCC(=O)NC1CCCC1,inactive
24,O=C1/C(=C/Nc2ccc3c(c2)OCO3)CCc2ccccc21,"inconclusive: 56.2 µM [inhibitor, single point]"
